# Measured values taken from PubChem BioAssay AID504832 (National Center for Advancing Translational Sciences (NCATS), 2011).
# The campaign covered roughly 310,000 compounds. About 18,000 (5.8%) were called active. The inconclusive results got no clear call from the source; some entries with a clear call stand among them for comparison. Calls follow the shape of the dose curve; as a rule, active = well fitted inhibition curve with a large enough effect; inconclusive = small, poorly fitted or top-dose-only effect, or another doubt; inactive = no such curve, though single readings can be large or run the other way. No potency is given beside an inconclusive call; the fits are too rough.
# Assay: Primary qHTS for delayed death inhibitors of the malarial parasite plastid, 48 hour incubation
# Conditions: P. falciparum luciferase growth in erythrocytes; series mostly up to 28.7 µM
# In short: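 In quantitative HTS format, infected erythrocytes bearing luciferase-reporter parasites were treated for a single generation at 37 C. Luminescence after adding detection reagent served as the growth measure.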
# Potency is read from the fitted curve at half-maximal effect; tags tell the direction and shape of the fitted curve.
row,SMILES,Potency
1,CC(C)(C)n1nnnc1C(c1ccccc1F)N(Cc1ccco1)CC1CCCO1 (configuration not stated),active: 13.1 µM
2,O=C1CC(C(F)(F)C(F)(F)C(F)(F)C(F)(F)F)=Nc2ccccc2N1,"inconclusive [inhibitor, single point]"
3,CN(C)Cc1nc2ccccc2c(=O)n1Cc1nc(C(C)(C)C)cs1,active: 13.1 µM
4,S=C(c1cn(CCOc2cccc3ccccc23)c2ccccc12)N1CCCC1,active: 13.1 µM
5,Cn1c(=O)cc(OCCCC(=O)N2CCN(c3ccccc3)CC2)c2ccccc21,"inconclusive [inhibitor, single point]"
6,COCCCNC(=S)NCCNc1nc2cc(C)c(C)cc2cc1C#N,"inconclusive [inhibitor, single point]"
7,CCN1CCCC1CNC(=O)c1ccc2c(c1)NC(=O)/C(=C\c1ccc(C)cc1)S2 (configuration not stated),"inconclusive [inhibitor, partial curve]"
8,CC(C)Sc1nnc(OC(=O)N(C)C)n1-c1ccccc1,"inconclusive [inhibitor, full curve, poor fit]"
9,CCOc1cc(C)c(C(C)C)cc1S(=O)(=O)n1ccc(C)n1,"inconclusive [inhibitor, partial curve, poor fit]"
10,O=C(CSc1ccc2ccccc2c1)NCCc1ccc(O)c(O)c1,inactive
11,CCOC(=O)C1CCCN(c2c(N3CCN(c4ccccn4)CC3)c(=O)c2=O)C1 (configuration not stated),"inconclusive [inhibitor, partial curve]"
12,O=C(NC1CCCc2ccccc21)c1ccc2c(c1)OCO2 (configuration not stated),"inconclusive [inhibitor, single point]"
13,O=C(N/N=C\c1ccc(Oc2ccccc2)cc1)c1csnn1,inactive
14,O=C(COC(=O)COc1cccc2ccccc12)NCC(F)(F)F,inactive
15,CCCCN(CC)CCCNC(=O)c1cc2cc3ccc(OC)cc3nc2o1,"inconclusive [inhibitor, partial curve, poor fit]"
16,COc1ccc(NC(=O)/C(C#N)=C/c2cccnc2)c(OC)c1,inactive
17,COc1cc(C(=O)NCCC(=O)NC(C)CCc2ccccc2)cc(OC)c1OC (configuration not stated),"inconclusive [inhibitor, partial curve, poor fit]"
18,Fc1ccccc1N1CCN(C(c2ccccn2)c2nnnn2C2CCCCC2)CC1 (configuration not stated),active: 10.4 µM
19,CNC(=S)N(C)CCc1cc2c(c(OC)c1/C=C1/C(=O)NC(=O)N(C)C1=O)OCO2,"inconclusive [inhibitor, single point]"
20,CCCn1c2ccc(C)cc2c2nnc(SCCN3CCOCC3)nc21,inactive
21,CCCCn1c(N)c(N(CC(C)C)C(=O)CCCc2cccs2)c(=O)[nH]c1=O,inactive
22,CC(=O)Nc1ccc(NC(=O)C(C)OC(=O)c2ccc(OCc3c(C)noc3C)cc2)cc1 (configuration not stated),"inconclusive [inhibitor, partial curve]"
23,Oc1cccc(/C=N/NC(=S)Nc2cccnc2)c1O,active: 0.0828 µM
24,CN(C(=O)CSc1nc2cc(Cl)ccc2c(=O)n1Cc1ccco1)C1CCS(=O)(=O)C1 (configuration not stated),inactive

row,SMILES,Potency
1,COc1cc(C2C(C#N)=C(N)Oc3cc(C)n(CC4CCCO4)c(=O)c32)cc2c1OCO2 (configuration not stated),"inconclusive [inhibitor, full curve, poor fit]"
2,CC1CCc2c(sc3ncnc(NS(=O)(=O)c4cccs4)c23)C1 (configuration not stated),"inconclusive [inhibitor, full curve, poor fit]"
3,O=C(CN1c2ccccc2S(=O)(=O)c2ccccc21)NCc1ccccc1,"inconclusive [inhibitor, partial curve, poor fit]"
4,CCc1nonc1NC(=O)COc1ccc(Cl)c(C)c1,"inconclusive [inhibitor, single point]"
5,CN(c1ccc(C(=O)NCc2ccc3c(c2)OCO3)cc1)S(C)(=O)=O,inactive
6,CC(=O)Nc1cccc(NC(=O)C(=O)NCC(c2ccco2)N2CCc3ccccc32)c1 (configuration not stated),"inconclusive [inhibitor, single point]"
7,CCCCNC(=O)CSc1nc2cc3c(cc2c(=O)n1CCC(=O)NCCc1ccc(OC)c(OC)c1)OCO3,inactive
8,O=C(c1cc(Cl)nc2ccccc12)N1CCCCC1,"inconclusive [inhibitor, single point]"
9,Cc1ccccc1S(=O)(=O)Cc1ccc(C(=O)NCCCN2CCC(C)CC2)o1,inactive
10,Cc1cc(Cl)c(OCCCNCc2ccccc2)c(Br)c1,"inconclusive [inhibitor, single point]"
11,COc1cc(OC)cc(C(=O)NNC(=O)c2ccccn2)c1,active: 9.28 µM
12,COc1cccc(NC(=O)c2ccc(-c3ccc([N+](=O)[O-])cc3)o2)c1,"inconclusive [inhibitor, single point]"
13,Cc1ccc(OCCC(=O)N(CC(=O)Nc2ccccc2C(F)(F)F)Cc2ccco2)cc1,"inconclusive [inhibitor, single point]"
14,C=C1/C(=C\C=C2/CCC[C@]3(C)[C@@H]([C@H](C)/C=C/[C@@H](O)C4CC4)CC[C@@H]23)C[C@@H](O)C[C@@H]1O,inactive
15,CC(C(=O)NC(=O)NC1CCCCC1)N(C)CC(=O)Nc1ccc(F)c(F)c1F (configuration not stated),"inconclusive [inhibitor, single point]"
16,Fc1cccc(Cc2noc(CN3CCCCC3CCc3ccccn3)n2)c1 (configuration not stated),"inconclusive [inhibitor, single point]"
17,N#Cc1cc([N+](=O)[O-])ccc1NC(=O)COC(=O)CC1CCCC1,inactive
18,COc1cccc(CN(C(=O)Cc2c[nH]c3ccccc23)C(C(=O)NC2CCCCC2)c2ccc(C)o2)c1 (configuration not stated),active: 13.1 µM
19,Cc1ccc(S(=O)(=O)N2CCCC(C(=O)NCC3CCCO3)C2)cc1 (configuration not stated),inactive
20,CCC(C)(C)n1nnnc1C(c1ccc(F)cc1)N1CCC(C(N)=O)CC1 (configuration not stated),inconclusive [inhibitor]
21,CCn1c(SCC(=O)N2CCC(C)CC2)nc2c(c1=O)SC(C)C2 (configuration not stated),"inconclusive [inhibitor, single point]"
22,COc1cccc(NC(=O)CSc2nc3ccccc3c(=O)n2C)c1,active: 11.7 µM
23,C/C(CC(=O)Nc1ccccc1Br)=N\NC(=O)C(=O)N1CCCC1,inactive
24,CCN(CC)CCNc1ncnc2c1[nH]c1ccc(OC)cc12,inactive

row,SMILES,Potency
1,CCc1nnc(NC(=O)C(=O)NCCOC(=O)c2ccccc2Cl)s1,"inconclusive [inhibitor, full curve, poor fit]"
2,CN(CC(=O)Nc1ccccc1Cl)C(=O)CSc1nnc(-c2ccco2)o1,inactive
3,CCN1C(=S)N[C@@H](CCc2ccccc2)C(C(=O)OC)=C1C,"inconclusive [inhibitor, full curve, poor fit]"
4,CC(C(=O)c1c[nH]c2ccccc12)N1CCc2ccccc2C1 (configuration not stated),"inconclusive [inhibitor, single point]"
5,Cc1c(Br)c(O)c(Br)c2sc(=O)oc12,"inconclusive [inhibitor, partial curve, poor fit]"
6,COc1cc(-c2noc(C)c2/C=C/c2ccc(N)cc2)cc(OC)c1OC,"inconclusive [inhibitor, single point]"
7,CC1(C)Cc2ccccc2-c2nnc(SCC(=O)Nc3nc4ccccc4s3)n21,"inconclusive [inhibitor, single point]"
8,Cc1ccccc1N=Cc1cccc(O)c1O,"inconclusive [inhibitor, single point]"
9,CC(=O)Nc1ccc(C(=O)NNC(=O)c2ccc(Cl)cc2)cc1,inactive
10,CC(=O)Nc1cccc(NC(=S)Nc2ccc(F)c(Cl)c2)c1,"inconclusive [inhibitor, partial curve]"
11,N#CCC1c2ccccc2CCN1C(=O)Nc1cccc(C(F)(F)F)c1 (configuration not stated),"inconclusive [inhibitor, partial curve]"
12,CC(=O)Nc1ccc(S(=O)(=O)Nc2cccc(-c3cn4c(n3)SCC4)c2)cc1,"inconclusive [inhibitor, full curve, poor fit]"
13,Cc1ccc(NC(=O)Cc2cc(C(=O)O)c3ccccc3n2)c(C)c1,"inconclusive [inhibitor, single point]"
14,COc1cccc(NC2=C(C#N)C(=O)NC(c3cccc(OC)c3O)S2)c1 (configuration not stated),inactive
15,Cc1ccoc1C(=O)N1CCCC(CCC(=O)N2CCN(c3ccccn3)CC2)C1 (configuration not stated),"inconclusive [inhibitor, full curve]"
16,CCC(C)(C)NC(=O)C(c1ccccn1)N(C(=O)c1csnn1)c1ccc(C)c(C)c1 (configuration not stated),inactive
17,COCCn1c(-c2ccc(Br)cc2)csc1=Nc1cccnc1,"inconclusive [inhibitor, partial curve]"
18,O=C(COc1ccc(F)cc1Cl)Nc1ccc(N2CCOCC2)cc1N1CCOCC1,active: 9.28 µM
19,Cc1ccc(-c2cnc(-c3ccccc3C(=O)O)o2)cc1,inactive
20,CCOC(=O)c1sc2nc(C)nc(NCc3cccnc3)c2c1C,"inconclusive [inhibitor, partial curve, poor fit]"
21,CCOC(=O)N1CCC(NC(=O)CS(=O)Cc2nc(-c3ccc(C)cc3)oc2C)CC1 (configuration not stated),inactive
22,Fc1cnc(N2CCOCC2)nc1N1CCOCC1,inactive
23,COc1ccccc1N1CCN(C(=O)CSc2nnc(NC(=O)c3ccco3)s2)CC1,"inconclusive [inhibitor, partial curve, poor fit]"
24,Cc1ccc(Nc2c3c(nc4ccccc24)CCC3)cc1,"inconclusive [inhibitor, partial curve, poor fit]"
